# Reference: article PMC12434519 (ACS Medicinal Chemistry Letters, 2025)
# Like-named read-outs stand apart in the source and are kept apart here.
# Biological target: SARS-CoV-2 NSP14 (Severe acute respiratory syndrome coronavirus 2, UniProt P0DTD1)
# Test: biochemical
# [1] = Hill slope of the concentration-response fit
# [2] = maximum response, LUM % inhibition, read-out: SARS-CoV-2 NSP14 inhibition: Maximum response (%)
# [3] = read-out: SARS-CoV-2 NSP14 inhibition: IC50
# [4] = LUM % inhibition, read-out: SARS-CoV-2 NSP14 inhibition: IC50
# [5] = LUM % inhibition, read-out: SARS-CoV-2 NSP14 inhibition: Maximum response
# [6] = fit of concentration-response curve
structure (smiles),measurement,setting,value
O=C(NC[C@H](O)CNC(=O)c1ncnc2[nH]ccc12)c1cc(F)cc2ccccc12 [RU-0833682],SARS-CoV-2 NSP14 inhibition: Hill slope,[1],0.895
same,Emax,[2],18.7%
same,IC50,[3],> 62.5 µM
Cc1c(F)ccc(C(=O)NCCc2ccc(CNC(=O)c3cccn4nccc34)cc2)c1F [RU-0834088],IC50,[4],> 125 µM
same,Emax,[5],39.6%
same,SARS-CoV-2 NSP14 inhibition: Hill slope,[6],0.371
Cc1cc(C(=O)NCC2(CCNC(=O)c3cnn4ccccc34)CC2)cc2cn[nH]c12 [RU-0834082],IC50,[4],> 125 µM
same,Emax,[5],24.6%
same,SARS-CoV-2 NSP14 inhibition: Hill slope,[6],0.967
"Cc1c([S@](=N)(=O)c2cc(F)c3[nH]ncc3c2)cc(C(=O)NCc2c(F)ccc3cnn(C4CC4)c23)n1C [TDI-016489, Cc1c([S@](=N)(=O)c2cc(F)c3[nH]ncc3c2)cc(C(=O)NCc2c(F)ccc3cnn(C4CC4)c23)n1C]",IC50,"Merged IC50 (µM), TDI-015051 series, retrospective VS set, biochemical MTase assay",0.000121 µM
O=C(NC1CC(O)(CNC(=O)c2cnn3ncccc23)C1)c1ccc(O)cc1F (centres unmarked) [RU-0834144],IC50,[4],> 125 µM
same,Emax,[5],9.15%
same,SARS-CoV-2 NSP14 inhibition: Hill slope,[6],61
C=C1Nc2ncnn2C(C)=C1CC(=O)Nc1cccc(C(=O)Nc2cccc(C(F)(F)F)c2)c1 [RU-0833915],IC50,[4],> 125 µM
same,Emax,[5],13.7%
same,SARS-CoV-2 NSP14 inhibition: Hill slope,[6],16.2
O=C(Cc1c(F)cccc1F)Nc1cccc(CNC(=O)c2ccc3[nH]ncc3c2)c1 [RU-0834086],IC50,[4],> 125 µM
same,Emax,[5],37.3%
same,SARS-CoV-2 NSP14 inhibition: Hill slope,[6],0.332
O=C(CCCn1c(=O)oc2ccccc21)Nc1cccc(C(=O)N2CCOCC2)c1 [RU-0833657],SARS-CoV-2 NSP14 inhibition: Hill slope,[1],89.6
same,Emax,[2],7.03%
same,IC50,[3],> 62.5 µM
O=C(NCC1CCC2(CN(C(=O)c3ccc(O)cc3F)C2)O1)c1nccn2ccnc12 (centres unmarked) [RU-0834085],IC50,[4],> 125 µM
same,Emax,[5],19.7%
same,SARS-CoV-2 NSP14 inhibition: Hill slope,[6],57.4
O=C(NCCc1ccccc1F)c1ccc(F)c(S(=O)(=O)N2CCCC2)c1 [RU-0833874],IC50,[4],> 125 µM
same,Emax,[5],15%
same,SARS-CoV-2 NSP14 inhibition: Hill slope,[6],23
O=C(NCc1cn2ccccc2n1)c1cccc(S(=O)(=O)N2CCc3ccccc3C2)c1 [RU-0833898],IC50,[4],> 125 µM
same,Emax,[5],18.2%
same,SARS-CoV-2 NSP14 inhibition: Hill slope,[6],33.6
Cc1cc(C(=O)NC[C@H]2C[C@H](CNC(=O)c3ncn4ccccc34)C2)ccc1O [RU-0834189],IC50,[4],> 125 µM
same,Emax,[5],11.8%
same,SARS-CoV-2 NSP14 inhibition: Hill slope,[6],1.2
CCOc1ccc(-n2ccn3c(CC(C)CC(=O)NCc4ccc(OC)cc4)nnc3c2=O)cc1 (centres unmarked) [RU-0833876],IC50,[4],> 125 µM
same,Emax,[5],22.7%
same,SARS-CoV-2 NSP14 inhibition: Hill slope,[6],1.92
Cc1ccccc1CC(=O)NCc1cccc(CNC(=O)c2ccc3cncn3c2C)c1 [RU-0834112],IC50,[4],103 µM
same,Emax,[5],43.5%
same,SARS-CoV-2 NSP14 inhibition: Hill slope,[6],0.813
COc1ccc2nc([C@@H](C)NC(=O)c3cccc(CS(=O)(=O)c4ccccc4)c3)[nH]c2c1 [RU-0833636],SARS-CoV-2 NSP14 inhibition: Hill slope,[1],1.22
same,Emax,[2],9.22%
same,IC50,[3],> 62.5 µM
Cc1cc(C(=O)NCC2(C)CCC(NC(=O)c3ncc4ccccn34)C2)cc2cn[nH]c12 (centres unmarked) [RU-0834202],IC50,[4],18.7 µM
same,Emax,[5],57.6%
same,SARS-CoV-2 NSP14 inhibition: Hill slope,[6],0.981
"Cc1c(S(=O)(=O)N2Cc3c[nH]nc3[C@H](CO)C2)cc(C(=O)NCc2c(F)ccc3cnn(C)c23)n1C [TDI-015496, Cc1c(S(=O)(=O)N2Cc3c[nH]nc3[C@H](CO)C2)cc(C(=O)NCc2c(F)ccc3cnn(C)c23)n1C]",IC50,"Merged pIC50, TDI-015051 series, retrospective VS set, biochemical MTase assay",0.00309 µM
COC(CCNC(=O)c1cccc(N(C)C)c1)CNC(=O)c1cc(C)c(O)c(C)c1 (centres unmarked) [RU-0834140],IC50,[4],16.3 µM
same,Emax,[5],38.1%
same,SARS-CoV-2 NSP14 inhibition: Hill slope,[6],1.08
Cn1cc2cc(C(=O)NC3CC(O)(CNC(=O)c4cnn5ncccc45)C3)ccc2n1 (centres unmarked) [RU-0834113],IC50,[4],> 125 µM
same,Emax,[5],10.4%
same,SARS-CoV-2 NSP14 inhibition: Hill slope,[6],368
Cc1nn(C)c(C)c1CCNC(=O)CCn1nc2ccccn2c1=O [RU-0833883],IC50,[4],> 125 µM
same,Emax,[5],13.5%
same,SARS-CoV-2 NSP14 inhibition: Hill slope,[6],0.113
